The source gives no read counts; variants with many changes may rest on few reads.
B1: CPEB3 Ribozyme (parent)
chain: UAACAGGGGGCCACAGCAGAAGCGUUCACGUCGCAGCCCCUGUCAGAUUCUGGUGAAUCUGCGAAUUCUGCUGUAUAUCUC

Variants of: B1
Assay: self-cleavage, relative activity (ratio to wild type); higher = more cleavage; in vitro, sequencing
Summary of the method: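 After error-prone PCR and barcoding, CPEB3 ribozyme mutant libraries were transcribed with T7 RNA polymerase at 37°C for 5 hours, then given 15 min with DNase I before an EDTA stop, and they cleaved during both steps. Reverse transcription with template switching preceded Illumina sequencing. Relative activity divides a variant's cleaved/total read fraction by the unmutated ribozyme's. At least 5 reads were required per variant, and three batches were averaged.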

Variant	self-cleavage
A28G G63U C79G	0.86
C29G U72A U78C	0.08
C29U U43C A47G U58C	0.27
G30A A45C A57G U72A	0.07
A28U U58C A77U	0.36
A28U U43C A45U U49A U51C A65G U66A	0.05
U31A U54C U58A	0.16
A28U A35U A77G	0.36
G30U U43A U49C	0.16
U31A U72A U80A	0.64
U31C A35G A64U U69C	0.14
C29G A45G U60C	0.25
U31C A47G A56C U80A	0.15
A28U C38U C81A	1.03
U31A A47U U51C	0.19
A28G U43C U54C	0.08
C29U A45G U60A	0.22
A28G U48A U54C C81U	0.09
G30A G36U U43C U72G A77G	0.05
G30A A35C U43C U60C A65U U69C	0.09
U31C A45U G70A	0.2
A28G U43A U74G U76A	1.3
U31A C44A U67A A75G A77G	0.04
A28U U43A U66C	0.41

Variant	self-cleavage
C29A U51C A56U A57U	0.09
A28U U31C A45G U67C	0.11
U31A C40U G53C	0.34
G30A G46A U72A	0.13
C29U U31A C32U G36A C44U U54C	0.06
U31C A47G A57G	0.2
A28U U48C U67C	0.17
G30A G42A U48C U69C U74C	0.16
C29U U48C U69C U76A	0.15
A28G U48C G52A A77G	0.33
C29U U31C U43A U60A U78C	0.12
U31A A35U C50A U72C U78C	0.12
A28G C59G U60C A64G U67C U78A	0.07
U31C A65C U74C	0.17
U31A A35U A64U	0.16
U31A C68G U72C	0.08
A28G G46U A64U	0.17
A28G C44U A45G	0.15
U31A A45U A47U A56G	0.07
G30A A35U U48G U60C U76A	0.13
U31A A35G A45U U67C	0.34
C29A U51C U54C A75U	0.41
C29U A45U U58C	0.34
U31C A64U U67G	0.12

Variant	self-cleavage
U31A G46U A56U	0.11
A28G U51A U69C	0.21
U31A U51C A64U U72C	0.19
U31C A56G U60A U72C	0.15
C29A A35U U43C	0.13
A28G U78A U80C	0.63
U31A U51C U78C	0.34
A28G U41A G63A	0.11
U31A U51C C59A U60C	0.14
A28U A47G U48C U74A	0.19
U31C A35G C39U A64G	1.19
A28G U31C U41C U54C	0.32
A28G U48C U51C G52A U54C U72A	0.23
U31A A64U C68U U80C	0.2
C29U C39G A65U U72A	0.12
A28U U31A A45G U48C U69C	0.1
U31A A47G U66C U74C	0.17
A28G U72C U76C A77G	0.87
U31A U51A G53C	0.82
A28G U41C U43A C44U	0.15
A28U A56U U58A U60C	0.11
C29U A56G U58C U69A	0.08
G30C U51A U58A U60C U66C U72C U80C	0.17
U31A A47G U60C A64U	0.14

Variant	self-cleavage
C29U A56G U58C	0.16
A28U C29U A77G	0.2
A28U U67C U74A	0.15
U31A A47G A75U U78A	0.8
A28G U43A U51C	0.8
A28G G33A U72C	0.16
A28G U31C A56U U66C	0.07
U31C A47U U76C	0.26
A28G G42A A47G	0.44
A28G U43C U72G	0.15
G30C G42C A75U	0.27
U31C A45U A64G U66C G70A U78C	0.09
A28U U54C U72G	0.78
A28G U41A U48C U49C U54C U60A U72C	0.02
C29U U31C U41C U69C	0.12
G30A C39U U80C	0.2
A28U U31A A65U U66C	0.18
A28G U41C A64U	0.14
A28G U31C U43C U58C	0.19
U31A A45U U54G	0.18
U31A U60C U67C U76A A77G	0.17
A28G U41C C68A	0.16
C29U U72A U76A	0.2
U31A U48C U67C U69C	0.14

Variant	self-cleavage
U31C A35U A64U U69C	0.11
A28G U41A A57U U69A	0.18
G30A C32A U48C C79G	0.06
U31A G33A U51A	0.25
A28G U43A G63A A75U	0.85
A28G G52C G73A	1.26
A28G U43C A47G	0.34
U31C A45G U54C U67A	0.12
A28U U51A G52U U67A U76C	0.47
G30A U49C U69A	0.34
A28U A56U U80C	0.8
A28U U31C A57G U67C	0.14
U31A U41G U78C	0.21
C29A G52A U58A A64C U76C U78A	0.03
U31A U60C G70U	0.11
C29U A35G U51C U66A	0.47
G30A U41C A45U U76C	0.13
A28U C68U U74C	1.02
U31C A35C A45G	0.16
A28U U49C G53A U80C	0.44
U31C A57G U60A U74A	0.24
A28G G36C A45G U54A U60A	0.05
A28U G30U U41A A56G	0.07
A28U A45G U69A	0.19

Variant	self-cleavage
A28U A35U U43C U69A	0.09
U31C A35G U78G	1.01
A28G U31C A47G A75U U80C	0.42
A28G G33A C68A G73A	0.21
A28G G36C A45G U67C	0.05
U31A U43C U58C U78C	0.13
G30A U54A A77U	0.06
U31C A35U C39A A64G U76A	0.18
A28U A35U U51C U60A U66C	0.08
G30U U41C U58C A65G G73A	0.13
A28U U49C U51C G73A U76C	0.63
A28U U31C A35U	0.24
A28G U31C A35G C37U G52A A57G	0.88
C29A U43C U72C C79A	0.42
A28G U51A A56U A65G U66C	0.04
A28U A47G U78C	0.74
U31A U60C C68U	0.18
A28G U41A U51A U60A A64U	0.11
A28G U41C U76C	0.63
A28G G63U U72A	0.28
A28U U58C U67A	0.19
U31A A35U U41C U51A U60A U69C	0.09
U31A C40U A47G U69A	0.11
U31A U41C U60A A65G U69A	0.15

Variant	self-cleavage
A28G U41C U51A A65C U78C	0.16
A28G U48C G52C U54C	0.2
G30A U41C U48C U54C	0.12
A28G U31C A45G U80C	0.16
U31C A45G A57G U76C	0.34
U31A U54C U74C	1.09
C29U U43C A45U G53A U60A	0.24
A28U U43C A75G	0.56
A28G U67C A75G	0.32
G30A A57G G63A U78C	0.08
C29G U41A U60C A75G	0.07
U31A U43A U78C	0.57
U31A U58A A64C U69A U78C	0.1
A28U A56U U58A U67A U80C	0.1
A28U U51A U58A	0.19
A28G U58C U69A	0.17
A28G U41A A57G U78C	0.29
A28U G33A U51A A64G U72C	0.07
A28U U69A U72A	0.2
A28G C59A U67C	0.12
A28U U43C A57G A65G	0.12
A28U U49C U76A	0.24
C29U U43C U60C U69C	0.44
